From patent publication US20110028697

Assays:
[1] = biological target: T1, MazE (S. aureus), chimeric protein with two molecules of Protein S from Myxococcus xanthus linked to, P02966
T1 chain: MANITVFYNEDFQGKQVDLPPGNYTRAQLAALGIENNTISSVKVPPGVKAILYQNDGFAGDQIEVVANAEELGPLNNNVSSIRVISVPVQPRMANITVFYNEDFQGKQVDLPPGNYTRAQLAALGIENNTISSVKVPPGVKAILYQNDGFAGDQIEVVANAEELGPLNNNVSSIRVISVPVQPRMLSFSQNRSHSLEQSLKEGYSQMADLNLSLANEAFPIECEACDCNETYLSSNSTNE

[2] = biological target: T2, MazE (E. coli), MazE from Escherichia coli with His-Tag and Myc-Tag at the N-terminal end
T2 chain: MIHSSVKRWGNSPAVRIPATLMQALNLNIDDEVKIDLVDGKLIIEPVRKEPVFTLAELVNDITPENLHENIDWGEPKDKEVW

Protein	fluorescence signal (ribonuclease activity of MazF on Substrate 3) [1]	fluorescence signal (ribonuclease activity of MazF on Substrate 1) [2]
MazF (S. aureus), MazF from Staphylococcus aureus (protein) MIRRGDVYLADLSPVQGSEQGGVRPVVIIQNDTGNKYSPTVIVAAITGRINKAKIPTHVEIEKKKYKLDKDSVILLEQIRTLDKKRLKEKLTYLSDDKMKEVDNALMISLGLNAVAHQKN	no increase in fluorescence signal was observed, and the ribonuclease activity of MazF (S. aureus) remained suppressed by MazE (S. aureus)	
MazF (E. coli), N-terminally His-Tagged MazF from Escherichia coli (protein) MVSRYVPDMGDLIWVDFDPTKGSEQAGHRPAVVLSPFMYNNKTGMCLCVPCTTQSKGYPFEVVLSGQERDGVALADQVKSIAWRARGATKKGTVAPEELQLIKAKINVLIG		no increase in fluorescence signal was observed, and the ribonuclease activity of MazF (E. coli) remained suppressed by MazE (E. coli)
